Assay results as given in publication PMC4336329 (PLoS ONE, 2015).
About 2,200 (0.71%) of roughly 310,000 compounds showed an effect of 50% or more. The effect is printed as a negative number. The list shows a part of the results.

Target: human ether-à-go-go-related gene (hERG) potassium channel (human, UniProt Q12809)
Assay: primary screen, population patch clamp on CHO cells stably expressing hERG

Sequence of human ether-à-go-go-related gene (hERG) potassium channel (Q12809 whole entry, looked up): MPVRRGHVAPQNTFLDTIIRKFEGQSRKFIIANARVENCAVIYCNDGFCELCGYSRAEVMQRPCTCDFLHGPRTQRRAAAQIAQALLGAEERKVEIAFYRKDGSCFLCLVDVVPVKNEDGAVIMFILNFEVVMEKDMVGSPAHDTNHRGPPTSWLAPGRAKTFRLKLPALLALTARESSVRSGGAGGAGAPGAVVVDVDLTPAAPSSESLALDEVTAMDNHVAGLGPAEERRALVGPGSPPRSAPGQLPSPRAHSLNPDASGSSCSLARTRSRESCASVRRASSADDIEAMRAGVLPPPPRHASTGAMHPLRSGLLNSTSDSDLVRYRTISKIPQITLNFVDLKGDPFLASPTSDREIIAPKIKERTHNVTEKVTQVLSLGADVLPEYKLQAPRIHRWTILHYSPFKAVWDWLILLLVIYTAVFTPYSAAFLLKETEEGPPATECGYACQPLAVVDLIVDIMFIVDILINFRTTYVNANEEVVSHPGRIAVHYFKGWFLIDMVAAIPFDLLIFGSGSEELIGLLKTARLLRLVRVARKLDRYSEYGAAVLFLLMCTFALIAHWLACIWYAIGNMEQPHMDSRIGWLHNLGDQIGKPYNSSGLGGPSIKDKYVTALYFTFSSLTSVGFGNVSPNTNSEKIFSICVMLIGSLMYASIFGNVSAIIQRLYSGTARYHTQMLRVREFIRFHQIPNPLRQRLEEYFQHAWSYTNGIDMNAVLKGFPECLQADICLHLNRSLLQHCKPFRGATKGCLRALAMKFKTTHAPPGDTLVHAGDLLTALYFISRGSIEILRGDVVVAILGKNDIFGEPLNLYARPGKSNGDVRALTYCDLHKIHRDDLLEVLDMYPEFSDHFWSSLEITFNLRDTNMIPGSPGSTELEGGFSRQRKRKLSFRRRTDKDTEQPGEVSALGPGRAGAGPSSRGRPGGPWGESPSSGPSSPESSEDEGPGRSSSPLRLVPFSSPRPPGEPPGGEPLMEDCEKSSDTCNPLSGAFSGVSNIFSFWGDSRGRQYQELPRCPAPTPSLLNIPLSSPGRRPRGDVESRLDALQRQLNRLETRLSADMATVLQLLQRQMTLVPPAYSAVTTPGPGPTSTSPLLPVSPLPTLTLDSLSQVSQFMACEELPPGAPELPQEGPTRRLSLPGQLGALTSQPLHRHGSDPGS

| Structure (SMILES) | hERG current change (%, negative = inhibition) at 1uM [%] |
| --- | --- |
| COc1ccc(C(=O)N/C(=C\c2ccco2)C(=O)NCCN2CCOCC2)cc1 | 14.8 |
| COC(=O)c1ccc(C2=NOC(C)(c3nnc(Cc4ccccc4)o3)C2)cc1 (centres unmarked) | 13.6 |
| O=C(Nc1cc2c3c(c1)CC(=O)N3CCC2)c1ccccc1F | 13 |
| Cc1ccc(C)c(-n2c3nc(=O)[nH]c(=O)c-3cc3cc([N+](=O)[O-])ccc32)c1 | 12 |
| CC(NC(=O)OC(C)(C)C)C(=O)Oc1cc2oc(=O)cc(-c3ccccc3)c2cc1Cl (centres unmarked) | 13.2 |
| Cc1ccc(Sc2nc(C)cc(C)c2S(C)(=O)=O)cc1 | 8.74 |
| Nc1ccc(C(=O)OCC(=O)NC2CCCc3ccccc32)cc1[N+](=O)[O-] (centres unmarked) | 14.8 |
| CN1CCN(S(=O)(=O)c2ccc3c(c2)CC(=O)N3C)CC1 | 5.59 |
| O=C1CCc2cc(S(=O)(=O)N3CCCCC3)cc3c2N1CC3 | 10.1 |
| Cc1ccc(C)c(OCCn2cc(C(=O)O)c3ccccc32)c1 | 9.49 |
| Cc1cccc(OCCC(=O)NCC(=O)Nc2c(C)cccc2C)c1 | 9.32 |
| COCCn1nnnc1C(c1cc2c(C)cc(C)cc2[nH]c1=O)N1CCCCCC1 (centres unmarked) | 10.2 |
| O=C(Nc1ccccc1N1CCOCC1)c1cccnc1 | 11.2 |
| O=c1cc(-c2cccs2)oc2ccc(Cl)cc12 | 7.79 |
| CCN1CCN(Cc2ccc(NC(=O)c3cc(NC(=O)c4cc(-c5ccc(OC)cc5)n[nH]4)cc(OC)c3)cc2C(F)(F)F)CC1 | 10.4 |
| Oc1c(C(c2cccs2)N2CCN(c3ccc(F)cc3)CC2)sc2ncnn12 (centres unmarked) | -30 |
| COc1ccc(C(=O)CSc2nnc(CNC(=O)c3ccccc3F)n2C)cc1OC | 18.2 |
| Cc1ccc(S(=O)(=O)N(C)c2c(C)ccc(S(=O)(=O)N3CCN(C)CC3)c2C)cc1 | -7.59 |
| COc1ccc(C(=O)OCC[N+]2(C)CCOCC2)cc1.[I-] | 16.2 |
| COc1cccc(C2N(c3ccccn3)C(=O)C3CCCN32)c1OC (centres unmarked) | 10 |
| O=[N+]([O-])c1cc(Cl)c2cccnc2c1O | 12.3 |
| CCOc1ccc(N2CC(C(=O)Nc3ccccc3C(=O)NC3CC3)CC2=O)cc1 (centres unmarked) | -26.7 |

| Structure (SMILES) | hERG current change (%, negative = inhibition) at 1uM [%] |
| --- | --- |
| N#CCCN(C(=O)COC(=O)c1ccc(CNS(=O)(=O)c2ccc(F)c(Cl)c2)cc1)c1ccc(F)cc1 | 7.19 |
| C=CCn1c(NCCc2ccccc2)nc2c1c(=O)n(C)c(=O)n2C | 4.06 |
| O=C(Cc1cccs1)Nc1cc(SCCO)cc([N+](=O)[O-])c1 | 1.98 |
| Cc1ccc(COC(=O)c2cccc(S(=O)(=O)N3CCCCCC3)c2)cc1 | -3.44 |
| CCn1nnnc1SCC(=O)c1cc(Cl)ccc1OC | 0.289 |
| COc1cccc(-c2ccc(-c3noc(-c4cccs4)n3)c(OC)n2)c1 | 5.01 |
| C/C(=C\C(=O)c1ccc(F)cc1)NCc1ccc2c(c1)OCO2 | 11.6 |
| C=C(C)[C@@H]1C2C(=O)O[C@H]1[C@H]1OC(=O)[C@@]34OC3C[C@]2(O)[C@@]14C (some centres unmarked) | 12.2 |
| O=C1c2ccccc2C(=O)N1CCSc1nnc(-c2ccco2)n1Cc1ccccc1 | -51.1 |
| CCOC(=O)c1c(SCc2ccccc2)n[nH]c1N | 15.7 |
| CC(=O)N1CCCc2cc(S(=O)(=O)N3CCC(C)CC3)ccc21 | -5.53 |
| CCCOC(=O)CSC1=C(C#N)C(c2ccccc2Cl)CC(=O)N1 (centres unmarked) | 9.53 |
| COc1ccc(N2CCN(C(=O)c3ccc(C)c(Cl)c3)CC2)cc1 | -7.97 |
| CCCCNC(=S)NNC(=O)c1csc(CC)c1 | 0.456 |
| CCN(CC)C(=O)Cn1cc(C(=O)C(=O)N2CCN(Cc3ccccc3)CC2)c2ccccc21 | 15.5 |
| CC1(C)Cc2c(cnn2-c2ccccc2)C(=O)/C1=N\NC(=O)c1ccccc1 | 16.8 |
| CCOc1ccc(C2C3=C(CCCC3=O)Nc3nc(C(F)(F)F)nn32)cc1OC (centres unmarked) | -1.44 |
| CCOC(=O)c1ccc(NC(=S)N(CCN2CCCCCC2)Cc2ccco2)cc1 | -87.2 |
| CCOc1ccc(NC(=O)CCn2c(=S)oc3ccccc32)cc1 | 11.7 |
| NC(=O)CC(NC(=O)Cc1ccc(Br)cc1)c1ccc(NC2CCCCCC2)c([N+](=O)[O-])c1 (centres unmarked) | 3.66 |
| O=C(COc1ccc(-c2ccccc2)cc1)N/N=C/c1cc(O)ccc1Br | 3.69 |
| O=C(O)CC1SC(=Nc2cccc(O)c2)NC1=O (centres unmarked) | 9.05 |

| Structure (SMILES) | hERG current change (%, negative = inhibition) at 1uM [%] |
| --- | --- |
| O=C(COC(=O)CNC(=O)c1ccc(Br)cc1)Nc1nnc(-c2ccccc2)o1 | 12.1 |
| CCCOc1ccc(C2C(=O)N(C3CCCCC3)CC(=O)N2CCC)cc1OC (centres unmarked) | 8.7 |
| Cc1ccc(C)c(/C(O)=C2\C(=O)C(=O)N(CCCn3ccnc3)C2c2ccncc2)c1 (centres unmarked) | 12.8 |
| C/C(=N\NC(=O)c1ccccc1)c1ccc2c(c1)OCO2 | 21.2 |
| O=C(Nc1cccc2cccnc12)c1cccc([N+](=O)[O-])c1 | 10.6 |
| COc1ccc(OCCN2C(=O)NC(C)(c3ccc(C)cc3)C2=O)cc1 (centres unmarked) | -10.6 |
| CCn1c(SCC(=O)NC(C)C)nnc1-c1cccs1 | 8.06 |
| CCOc1ccc(C(=O)/C=C/Nc2ccc(S(=O)(=O)Nc3onc(C)c3C)cc2)cc1 | 7.2 |
| CCCNS(=O)(=O)c1ccc(-n2cnnn2)c(OC)c1 | 4.13 |
| O=C(COc1ccccc1)N(Cc1ccco1)c1ccc(O)cc1 | 8.59 |
| Cc1cccc(NS(=O)(=O)c2ccc([N+](=O)[O-])cc2)n1 | 6.95 |
| COc1ccc(CN(C(=O)c2oc3ccccc3c2C)C2CCS(=O)(=O)C2)cc1 (centres unmarked) | -2.96 |
| O=C1Nc2ccc(Br)cc2C1=C1CCCCC1 | 21.6 |
| O=C(CCC(=O)c1ccccc1)NCCc1c[nH]c2ccccc12 | 5.22 |
| CCOC(=O)CN1C(=N)N(c2nc(NC(C)C)nc(OC)n2)CC1=O | 7.09 |
| [O-]/[N+](=C/c1ccc(F)cc1)c1ccc(Cl)cc1 | 10.8 |
| Cc1ccc(-n2c(Cc3cccn3C)nnc2SCC(=O)Nc2ccc3c(c2)OCO3)cc1 | 0.763 |
| Cc1cc(/C=C2/SC(=S)N(c3ccc([N+](=O)[O-])cc3)C2=O)c(C)n1-c1cccnc1 | 13.2 |
| CC(C(=O)c1ccccc1)[n+]1cccc(Br)c1.[Br-] (centres unmarked) | 4.99 |
| O=S(=O)(c1ccccc1OC(F)(F)F)N1CCN(c2ccnc3cc(Cl)ccc23)CC1 | 9.89 |
| O=S(=O)(c1ccccc1)N1CCN(c2nnnn2-c2ccccc2)CC1 | 4.02 |
| Cc1cc(=O)n2nc(N3CCC(C(=O)N4CCN(C)CC4)CC3)sc2n1 | 15.3 |

| Structure (SMILES) | hERG current change (%, negative = inhibition) at 1uM [%] |
| --- | --- |
| Cl.N=c1ccn(Cc2ccc(Cl)cc2)cc1 | 4.49 |
| CSc1cccc(NC(=O)CC2Oc3ccccc3NC2=O)c1 (centres unmarked) | 7.99 |
| CC(C)(C)C(=O)Nc1ccc(F)cc1[N+](=O)[O-] | 7.33 |
| CCCCNC(=O)Cn1c(=O)n(C)c2ccccc21 | 10.9 |
| CCc1ccc(NC(=O)CSc2nnc(CNC(=O)c3cccs3)o2)cc1 | 8.18 |
| Oc1cccc2ccc(Nc3ccccn3)nc12 | -16 |
| COc1ccc(CC(=O)NNC(=O)c2ccncc2)cc1 | 10.6 |
| CCCC(C(=O)NC1CCCC1)N(Cc1ccc(OC)cc1)C(=O)c1snc(C(N)=O)c1N (centres unmarked) | 7.15 |
| COc1ccc(-n2c(SCC(C)=O)nc3sc(C)c(C)c3c2=O)cc1 | 17.3 |
| O=C(N1CCOCC1)N1CCC(c2nc(-c3ccc(S(=O)(=O)N4CCOCC4)cc3)no2)CC1 | 5.27 |
| COC(=O)C(NC(C)=O)(Nc1nc2ccc(S(C)(=O)=O)cc2s1)C(F)(F)F (centres unmarked) | 16 |
| O=C(CSc1n[nH]c(-c2ccc(S(=O)(=O)NC3CCCCC3)cc2)n1)N1CCCC1 | -0.71 |
| CCN=C1SC(CC(=O)NC2CCCCC2)C(=O)N1CC (centres unmarked) | 5.5 |
| CCC1=Nc2cc(C(=O)NCCN3CCCC3)ccc2Sc2ccc(C)cc21 | 7.13 |
| CC(C)CN(C(=O)COC(=O)c1ccc(Br)o1)c1c(N)n(Cc2ccccc2)c(=O)[nH]c1=O | 12 |
| O=c1c2cc(NC(=S)N3CCCCC3)ccc2nc2n1CCCCC2 | -3.2 |
| CC1CCN(C(=O)COc2ccc(S(=O)(=O)N3CCOCC3)cc2)CC1 | 4.27 |
| Cc1ccc(C)c(Cn2c3ccccc3c3cnn(CC(=O)NCCN4CCOCC4)c(=O)c32)c1 | 2.36 |
| CCC(c1nnnn1Cc1ccco1)N(Cc1cc2cc(OC)ccc2[nH]c1=O)C1CCCCC1 (centres unmarked) | 3.98 |
| CC(=O)OC[C@H]1O[C@@H](Sc2cccc3cccnc23)[C@H](OC(C)=O)[C@@H](OC(C)=O)[C@@H]1OC(C)=O | 4.36 |
